Data published in PMC12136788.
This is one part of the list.

B1: chr16:94690093:94690094:+_ENSMUSG00000040785_ENSMUST00000117648|mus_hu|mus_mus_mus_hu_True|1_58 (ssRNA)
RNA: GGGAGUUCUACAGUCCGACGAUCGGGCUGGGAUGACGGACACACAGCCUCGAUUCCAGGGGGAAAAAGUCUUAGUCAAUACUAAUUAAAAAGUGUUAAUGAUUUUUGAAAAUCAGAUUACAUCUAUAAAAGAUGAAAGCACUUCAACAGAGGAUUGAGCAUCA
B2: chr6:38489255:38489256:+_ENSMUSG00000019689_ENSMUST00000019833|mus_mus|motif|central (ssRNA)
RNA: GGGAGUUCUACAGUCCGACGAUCCACUGAACGCUCACCCUUGCCAUGAAAUUCCUGAUGAAGGGCUACAUGUUGCCGGAUGCGGCUCAAAAGGCAGAGAUAGGUGGCAGCUUGGAAGUGAAGUUCGUGUUGGGCUCUACACAACAACAGAGGAUUGAGCAUCA
B3: chr8:117878989:117878990:-_ENSG00000164754_ENST00000297338|hu_hu|hu_hu_hu_mus_True|58_108 (ssRNA)
RNA: GGGAGUUCUACAGUCCGACGAUCCCAGAGGCCCUCUUUUACUGAGGACAAAAUGUGCGUAGAACAUUUUUCUUAUUGGCUAUGAAAUAAGAAGAAACCUGGAUCUCGGCGGGGAGCCGGGAGGGGUGGGUGGCCCGGGGAGGGCAACAGAGGAUUGAGCAUCA
B4: chr7:116558156:116558157:+_ENSG00000198898_ENST00000458284|hu_hu|motif|central (ssRNA)
RNA: GGGAGUUCUACAGUCCGACGAUCAAAAACUUUUAACCAUAAACUAGAAGAAUCAUCUCUUCAUUGUAAGAAAGAAAGGCCGGACAGAAAGACAUUUAAACUAAACUGAUUUUCAAUCCUCUUAGAACAAACAAAAUGAAAAAUCAACAGAGGAUUGAGCAUCA
B5: chr3:176767854:176767855:-_ENSG00000177565_ENST00000430069|hu_hu|hu_hu_hu_mus_False|38_98 (ssRNA)
RNA: GGGAGUUCUACAGUCCGACGAUCGACAUCCUUGUUACUUGGAACAUCCUGCCCUCCUUCCCGUAUGCAGUGUCUAAGCACGAGCUGCGUAGGGCCACUGGUGCUGUUCUCACUGAGGUUCCAGAUUCUUGCCGUGGAGUCUCCCAACAGAGGAUUGAGCAUCA
B6: 154938123_154938243_1682_CDS_ENSG00000160691_ENST00000448116|human|control|control (ssRNA)
RNA: GGGAGUUCUACAGUCCGACGAUCCCCAUUGAGCUGCAGCAGUGCCUCAGCCUCCCGCCGGCUCAGCUUCCCAUGGAACCAGGGCUCCCCUCGGAGCUGCUCAGCCAUGGACACCGACUGGGGAGGUGGAGGCACGCGAAGAGCCAACAGAGGAUUGAGCAUCA
B7: chr16:94651144:94651145:+_ENSMUSG00000040785_ENSMUST00000117648|mus_hu|mus_mus_mus_hu_True|58_108 (ssRNA)
RNA: GGGAGUUCUACAGUCCGACGAUCAUUCUCUUGGAUCAAGUGGCGAAUAACAUAGUCCACUGCUUCAUUUAGAAAAUUUUUGCUAGAAAAACAGGUUGUAUAGUCUUCUGUGCUCAAAACUUUCCAAGAAAGCAAUUCUUUGAGCAACAGAGGAUUGAGCAUCA
B8: chr13:42874254:42874255:+_ENSG00000023516_ENST00000025301|hu_hu|motif|central (ssRNA)
RNA: GGGAGUUCUACAGUCCGACGAUCUCCACCAAUAUCUGUUUGGCAAAAACAUUCAGCUGGAGUACAGCCUCCAAGAGGACGGAAAGCAGAGGAUCGAAUAGGACUAAAUAAACCACUAUCUUCCCUUGAUGCCUUCACUGGGCGCAACAGAGGAUUGAGCAUCA
B9: chr1:163117127:163117128:-_ENSG00000143248_ENST00000313961|hu_mus|motif|central (ssRNA)
RNA: GGGAGUUCUACAGUCCGACGAUCUGCUACAAAGGAUGUAACUCAACUCACAGGGCAACUUUUGGAAGCCUGACCAGAUGACGGCUUGAUUAGCUCCUUAUAAAAUUCAGAGCGCACAAAGCGGGGCAGAGAAUCCUUCUCCAUCAACAGAGGAUUGAGCAUCA
B10: chr17:65337135:65337136:-_ENSG00000197170_ENST00000584008|hu_hu|motif|central (ssRNA)
RNA: GGGAGUUCUACAGUCCGACGAUCUCUGGAAGUUGAUAAUUCCUGCUAAUCUGUCUACUUUAGCAAAGAUGGUCUUGUUAACGGCGGGAUUUGAGAGAAAGGCUUCGGACUCAUCAACAGAUAGAUCCAGAAGCUGUGCCAUCCCAACAGAGGAUUGAGCAUCA
B11: chr1:204375296:204375297:-_ENSG00000158615_ENST00000367188|hu_mus|motif|central (ssRNA)
RNA: GGGAGUUCUACAGUCCGACGAUCUGUUCACUUCUUAACAUUGCUGUACAACAGUAAGUCCUUUGACUCGAUCCUCAGUCGGUUAAACAUUUUUUCUCUGUGCUCAAAGGCCAAGCAGUAGCCAAUGGCAACUUCUGUUUCUUGCAACAGAGGAUUGAGCAUCA
B12: chr2:42543136:42543137:+_ENSG00000143924_ENST00000318522|hu_hu|FALSE|FALSE (ssRNA)
RNA: GGGAGUUCUACAGUCCGACGAUCAUCUAUUGAGUAGCGCAUCACAGAGAGCUGUUCAUUCCCGUCUGUGUGGAUAGAAACUAGAUCUCUGGUUUCUGCAUCCAGAACAAACCACCUGCCUGAGUGCGUUCCUAUGGCCACCACCAACAGAGGAUUGAGCAUCA
B13: chr14:21838049:21838050:-_ENSG00000092201_ENST00000216297|hu_hu|FALSE|FALSE (ssRNA)
RNA: GGGAGUUCUACAGUCCGACGAUCGUUGAGCUCCCCAUCCUCCUUUACAGCGAUGGUAUAUGCCACAACUGCACUGAUAUCUAUUUUGUCAAAGCCUUCUUUGUUGAGGCAGUCAUUCCAGCUCUUCAUGAACUCUCCAGGGAACAACAGAGGAUUGAGCAUCA
B14: chr6:38652254:38652255:-_ENSG00000124767_ENST00000373365|hu_hu|FALSE|FALSE (ssRNA)
RNA: GGGAGUUCUACAGUCCGACGAUCUGAAAACUUCAUAAUGGGAAAAUCACAUUUUUGGAUUAGCGUCAUUCCAAGAACUCUAGUAUAAAAAUCCAGUGACUUCUUAGGAUCCUUCACUCGUAGCAUGGUCUGCUGCAAUAGAAACAACAGAGGAUUGAGCAUCA
B15: chr4:140556289:140556290:+_ENSMUSG00000036622_ENSMUST00000037055|mus_mus|mus_mus_mus_hu_False|8_58 (ssRNA)
RNA: GGGAGUUCUACAGUCCGACGAUCGAUGGAGCUCACCAGGCCCCCUUUUGCCGUGCAGAACCCUGUGCGGGUCACCACUGCUAGCACGUGCGGUCCCACAUAGGCCCGGGCCUGCAAGAUGAGGGUCCCACAGAAGAGUGUGUGCAACAGAGGAUUGAGCAUCA
B16: chr5:43295983:43295984:-_ENSG00000112972_ENST00000433297|hu_hu|FALSE|FALSE (ssRNA)
RNA: GGGAGUUCUACAGUCCGACGAUCGAUACUAUUUUUAUCUCUAUUCUGGUCAUUAAGGAAGUCAUUCAGCAACAUCCGAGCUAGAGAUUUCUGAACCAGUUUACAAUAUGGUGAGUGAAAGAUCAUGAAGCCAAAAUCAUUCAACAACAGAGGAUUGAGCAUCA
B17: chr14:100422286:100422287:-_ENSMUSG00000072294_ENSMUST00000097079|mus_hu|FALSE|FALSE (ssRNA)
RNA: GGGAGUUCUACAGUCCGACGAUCAGGGGACGUCCUGGCUUUGUUUAUUGACAAGUCCACUGGCUCAGUUUGUGUUUGGAAGUGAUCUACAGAUAACGAGUCCUCCGGGGGCUCCCCUUUCACAUUAUUUAGCAACAGGGGAACCAACAGAGGAUUGAGCAUCA
B18: chr2:32515631:32515632:+_ENSG00000119820_ENST00000437765|hu_mus|FALSE|FALSE (ssRNA)
RNA: GGGAGUUCUACAGUCCGACGAUCUUCAGGAUCCUCAUCUUCAACUUCCAAAAGCCAGCCAUAGCCUCUUUGUCUCAGAAAUGUAGUAGCUGUAGAUUCUUUGAUGAAAUCUCCGCUUACACCGAGGUUUAAUUUGACAUCUGGCAACAGAGGAUUGAGCAUCA
B19: chr15:98781188:98781189:-_ENSMUSG00000072235_ENSMUST00000097014|mus_hu|FALSE|FALSE (ssRNA)
RNA: GGGAGUUCUACAGUCCGACGAUCCCUAUUCAGGUUAGUAUAGGUUGGACGCUCAAUAUCGAGGUUUCUACGACAGAUGUCAUAGAUGGCCUCAUUGUCUACCAUGAAGGCACAAUCAGAGUGCUCCAGGGUGGUGUGGGUGGUCAACAGAGGAUUGAGCAUCA
B20: chr7:56126341:56126342:+_ENSG00000146731_ENST00000540286|hu_mus|hu_hu_hu_mus_True|18_108 (ssRNA)
RNA: GGGAGUUCUACAGUCCGACGAUCCAUAUUUCUCCUUUUGGCUCUGCGCAGAGCUACGAUCCCUUCUUUCGCAAGGGCAUCUAAGGAAAAGGGGUCAAUCCCCUUUUGAUUAAUAACAACAAAUCCUUUAUCUGAGUCACCACACAACAGAGGAUUGAGCAUCA
B21: chr2:59185810:59185811:+_ENSMUSG00000026991_ENSMUST00000151452|mus_mus|FALSE|FALSE (ssRNA)
RNA: GGGAGUUCUACAGUCCGACGAUCCCCAUCCUUUUUGUAAAUGCUCCGGAGGUCCCGGUACUGCCAUAAUGUAUUCAAGACCUGGGCUGCCGCCUUCACCACUUUCAGAGAGGAUCUGUCUCCUCUGCCUUUGGUUAUGUUCACCAACAGAGGAUUGAGCAUCA
B22: chr1:151373778:151373779:+_ENSG00000159377_ENST00000290541|hu_hu|FALSE|FALSE (ssRNA)
RNA: GGGAGUUCUACAGUCCGACGAUCAAACCGGUUGUAAGAACGGGCAUCUCGGUAGUACAGCACUCGCAUGCAGCGUUCUACUAAGUCGCGGGCCUCGGUCUGGCUUAGCACUGGCUGCUUCUCCAGAACUUCUCGCAGCAGAGGCAACAGAGGAUUGAGCAUCA

target: T1, UNK ZnF1-3 (human, UniProt Q9C0B0 31-174); assay: nsRBNS (natural sequence RNA bind-n-seq); RBNS binding buffer (assumed for nsRBNS): 25 mM Tris pH 7.5, 150 mM KCl, 3 mM MgCl2, 0.01% Triton X-100, 500 ug/ml BSA, 20 U/ml SUPERase-In, 4 C; UNK is unkempt and MSI1 is Musashi-1; names of the RNAs are library labels; protein concentration not given here; high values mean tight binding
T1 sequence: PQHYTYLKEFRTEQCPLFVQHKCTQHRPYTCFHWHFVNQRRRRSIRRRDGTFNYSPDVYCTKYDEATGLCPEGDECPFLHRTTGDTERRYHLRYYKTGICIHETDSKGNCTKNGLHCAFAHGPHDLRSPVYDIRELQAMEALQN

Row | Binder | binding signal [enrichment R]
1 | B1 | 0.873
2 | B2 | 0.977
3 | B3 | 1.7
4 | B4 | 1.29
5 | B5 | 0.603
6 | B6 | 0.361
7 | B7 | 0.578
8 | B8 | 1.46
9 | B9 | 1.05
10 | B10 | 0.8
11 | B11 | 0.681
12 | B12 | 1.04
13 | B13 | 1.04
14 | B14 | 0.5
15 | B15 | 2.12
16 | B16 | 0.972
17 | B17 | 0.708
18 | B18 | 0.837
19 | B19 | 0.684
20 | B20 | 0.895
21 | B21 | 0.774
22 | B22 | 1.09
